Data as given in the supplement of paper PMC10126150.
Sequences with one replicate were seen in a single cluster, so their values are uncertain.

The sequences below were run on ATP (assay: switch fluorescence ratio, 500 uM ATP over buffer (Cy3 cluster intensity, sum of 5 cycles each) (fold (ratio)); higher = stronger signal-on switching upon ATP binding; sequences stand for … in TCGTCGGCAGCGTCAGATGTGTATAAGAGACAGTTTTTTTTTTTTTTTTTTTTTTTTT…TC). Conditions: aptamer strand: ATP DNA aptamer (quencher-CACCTGGGGGAGTATTGCGGAGGAAGG + anchor), 100 nM annealed; ATP concentration: 500 uM; one replicate.
Outline: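 After annealing to 100 nM quencher-labelled ATP aptamer, Cy3-labelled switching-strand clusters on a modified Illumina MiSeq flow-cell were imaged in selection buffer. A second image followed after 15 min with 500 uM ATP at 22 °C, and five such buffer/ATP cycles were done, each separated by NaOH stripping and re-annealing. The fluorescence ratio, averaged per switch-domain sequence, is summed target-cycle over summed buffer-cycle Cy3 intensity per cluster, with clusters outside 100-1000 RFU excluded.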
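Note: ATP exposure 15 min at 22 °C before imaging.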

| Sequence | switch fluorescence ratio |
| --- | --- |
| AGGCCTTCTG | 1.07 |
| AAAGGATAA | 1.02 |
| AGGGTAGTGG | 0.983 |
| GTGTTAGGA | 1 |
| GTCAAAGTGC | 0.986 |
| TTAATCAGCG | 1.01 |
| CTTTCCGGAA | 1.92 |
| GGCCACGCCC | 1.03 |
| ACTCGACCCT | 1.25 |
| AAGGCCAAT | 0.996 |
| GTGGCTGTTA | 1 |
| AGGTTCAGTA | 1.03 |
| CCGAAATTAA | 1.68 |
| GTTGAATATA | 1.03 |
| GCGGGTCTCT | 1.03 |
| CTGTTAACGG | 0.961 |
| TGCCAACAGG | 1.09 |
| GGGTACCCTT | 1.02 |
| CCGGTATTTA | 1.01 |
| CTAGGGGAG | 0.983 |
| CAGCGAGATG | 1.04 |
| GAAATACGCG | 1.02 |
| CTCTGTGATC | 3.63 |
| TTACATCAA | 1.07 |
| AATATCAATA | 0.985 |
| TCCGTCTTAC | 2.82 |

| Sequence | switch fluorescence ratio |
| --- | --- |
| TGGGGTGCTA | 1.01 |
| ATTTTTCAC | 1.07 |
| TTACTCCCTT | 1.36 |
| TCTTCACTCG | 1.54 |
| AGTTGTACAG | 1 |
| AGCTTTAGAT | 0.987 |
| AGTTGAACAG | 0.977 |
| TTAGGTGCCG | 1 |
| TAGGGTATAC | 1.07 |
| ATACGGAGGA | 0.995 |
| ACATGACAA | 1.14 |
| GGCAGAGATT | 0.966 |
| AGTGGGGTTG | 0.941 |
| ATTTTTGGAC | 1.04 |
| TCCTTGAACT | 1.13 |
| GCCCTATCG | 1.02 |
| CTGGGCCTCG | 1.01 |
| TTCAGCAGGA | 0.984 |
| GACTTAATGC | 1.4 |
| TCCACGTATA | 1.25 |
| TTGATCCCCG | 0.983 |
| AGTATAACCT | 1.65 |
| ATGAGAAAT | 0.974 |
| GGCGCAGACA | 1.04 |
| ATACTGAATC | 1.03 |
| GCAGGTCGCT | 1.04 |

| Sequence | switch fluorescence ratio |
| --- | --- |
| TAAAGCTGTT | 1.07 |
| CGTGGCGCAC | 1.07 |
| CTGTAACAGT | 1.03 |
| ATAGTTTGGT | 1.02 |
| AGAGCCCCAT | 0.956 |
| AGTCGGGCA | 1.02 |
| GGCGAAGGTT | 1.05 |
| ATAGTGTGCG | 0.995 |
| TAAACAATCG | 1.46 |
| CAAGTAAGGG | 1 |
| TTCGGATACA | 0.992 |
| CGGGAGCGAG | 1.01 |
| CTGATCAGTC | 0.988 |
| AACCGGTCTG | 0.977 |
| CTAAAGCCA | 1.02 |
| GGAAGCTACG | 0.981 |
| ATCGGGTGAG | 1.03 |
| TTTAACGGCC | 0.984 |
| GGCAGAGT | 0.934 |
| TTACACTTTA | 1.08 |
| AGGTCTCCGT | 0.987 |
| ATTTTGAAAT | 1.01 |
| ACTTTGAATT | 1.07 |
| TATGGTATGA | 0.924 |
| TTGGAAACAT | 1.08 |
| GGGGGACGGA | 1.04 |

| Sequence | switch fluorescence ratio |
| --- | --- |
| ACACAAGACT | 1.29 |
| GGGACTGGTC | 1.03 |
| TATGAGTGAT | 1.08 |
| TTTTTCCTGG | 0.967 |
| TGAGTTAGTA | 0.993 |
| TTCCTAGGC | 1.12 |
| ACTACCGTTA | 1.17 |
| TCCTCACTG | 1.16 |
| TTCACAGCTA | 1.21 |
| TGATGCGCGA | 1.09 |
| TGTGGGGTGA | 0.96 |
| ACACATCAGT | 1.02 |
| CACACTGAGA | 1.05 |
| CCTTATATGG | 1.02 |
| TATACGGCA | 1.14 |
| CCCATGAACG | 1.04 |
| GCTTATCAAC | 1.02 |
| TCGCAAAGCG | 1.01 |
| TGTTACGGCT | 1.03 |
| CTAATTGGAA | 0.946 |
| ATTTTGCACT | 1.03 |
| CTATATCGGA | 0.985 |
| GTTGGATTCG | 0.981 |
| GGCAAACCTT | 2.83 |
| CAGCCCGTAG | 2.3 |
| GGAGTTTCCC | 0.969 |

| Sequence | switch fluorescence ratio |
| --- | --- |
| TAAATGCTCT | 1 |
| GTCAGTTTCA | 0.967 |
| CGGTTCTCAA | 0.938 |
| GCCTGAGCGG | 1 |
| TACCAGGACG | 0.942 |
| GCAGGTACCC | 1 |
| TTACGCTAGA | 1.07 |
| GGGTGCACCG | 1.03 |
| TATCCAAGGA | 0.971 |
| TTTCCAGGGC | 1.34 |
| TCCCGTTAGC | 1.15 |
| GGACTCGCCA | 1.01 |
| AACGGCGGTC | 1.01 |
| GATATACTAG | 1.01 |
| TGAGTGCCAT | 0.981 |
| ACTCTGGTCT | 1.02 |
| AACTGTGTCT | 0.994 |
| GAATTTGTAG | 1.03 |
| GAGGGGTACA | 1 |
| GCGGCGCTGG | 0.982 |
| CAGGAGAGCT | 0.965 |
| AGCACTTAAC | 1.25 |
| CTATTTACCT | 1.18 |
| TTAGTTTACG | 1.02 |
| TAAGCCCGGG | 1.08 |
| TTGCTCGTAC | 1.17 |

| Sequence | switch fluorescence ratio |
| --- | --- |
| TGGGCTTTCC | 1.1 |
| ACTTCGTCTG | 1.16 |
| CACACGGCGG | 0.962 |
| TACCCTGGTT | 1.09 |
| TGGGGGAA | 0.992 |
| AGGTGAGGAA | 1.04 |
| ATTGCACAAC | 1.1 |
| TTACTATTAA | 1.06 |
| CATATGCCAG | 0.918 |
| AGTAGTATCG | 0.974 |
| CGCCGGCGGT | 0.965 |
| AACAAGATGG | 1.02 |
| CGCTCAAGAT | 1.09 |
| CGTGCAGTTG | 1.03 |
| ATTATAAGAA | 0.979 |
| TTCCGAATGA | 1.16 |
| TAGAGCATTC | 1.12 |
| CCAAATCGGT | 0.994 |
| CAGCCGGCTT | 1.1 |
| TCCTGTAACC | 1.05 |
| GTGGGGTG | 1.06 |
| CAATGTGTTC | 1.03 |
| ACTTGGATC | 1.03 |
| GCACCGTGGT | 1.04 |
| ATCGCGAATA | 1.07 |
| AAACTGGAA | 1.02 |

| Sequence | switch fluorescence ratio |
| --- | --- |
| GTCTCCAACA | 1.01 |
| TGGAAGTCCC | 1.01 |
| AGCGGCATAT | 1.04 |
| GGCAGGAATT | 1.01 |
| GTAGTACCTT | 1.08 |
| AGAAGATCAA | 0.967 |
| GAAGCGTGAC | 2.06 |
| TGATTTAGGG | 1.04 |
| GCCTCTACAC | 1.08 |
| ACTAAGGGTT | 1.01 |
| GCCCTCGGGC | 1.07 |
| CTGCAACGCT | 1.12 |
| CGGGGAATCC | 0.945 |
| AGATCGGTAG | 0.96 |
| ACGTTGACAA | 1.29 |
| GGTGCTTTAT | 1.04 |
| ATTCCATCGA | 1.02 |
| TCATTATGGG | 0.967 |
| TTCATGAAGT | 0.987 |
| ACCAAGTCGT | 0.986 |
| GGATGAAATT | 0.999 |
| TCACACCATA | 1.13 |
| CACAGCGTA | 1.06 |
| GCTCCTCCC | 1.78 |
| CAGTGGGCTC | 0.984 |
| TATACCACTT | 1.03 |

| Sequence | switch fluorescence ratio |
| --- | --- |
| TACTATTTAA | 1 |
| AAAACGCACG | 1.23 |
| GCCTAAGGAG | 0.982 |
| CGTTCCACTG | 1.03 |
| TCGTGTGTCT | 1 |
| AGGATCTCTA | 1.01 |
| TGGACCATCT | 1.33 |
| TGCGCCG | 1.03 |
| CGCCAACGCT | 1.09 |
| GATATGGGTT | 1.01 |
| ACTTTCCGGT | 1.06 |
| ATTCCGGTTT | 1.02 |
| TAACTTACCG | 1.17 |
| TGAGGGGTG | 1.02 |
| TTGTGCTTCT | 0.988 |
| TGGGCAATCG | 2.85 |
| ACGTTAGCAG | 1 |
| TAAGGATCTT | 1 |
| AGCAATCCGC | 1.53 |
